From a compilation of properties of binary mixtures (doi:10.1007/s11426-012-4655-1)
The densities may have been worked out from excess volumes.

Experiment: xn = mol fraction of the nth substance listed
Settings: 101 kPa

Row | Compound | mass density (303.15 K, x2 = 0.6) | mass density (303.15 K, x2 = 0.8) | mass density (308.15 K, x2 = 0.2) | mass density (308.15 K, x2 = 0.4) | mass density (308.15 K, x2 = 0.6) | mass density (308.15 K, x2 = 0.8) | mass density (313.15 K, x2 = 0) | mass density (313.15 K, x2 = 0.2) | mass density (313.15 K, x2 = 0.4) | mass density (313.15 K, x2 = 0.6) | mass density (318.15 K, x2 = 0) | mass density (318.15 K, x2 = 0.2) | mass density (318.15 K, x2 = 0.6) | mass density (323.15 K, x2 = 0) | mass density (323.15 K, x2 = 0.2) | mass density (323.15 K, x2 = 0.4) | mass density (323.15 K, x2 = 0.8) | mass density (328.15 K, x2 = 0) | mass density (328.15 K, x2 = 0.4) | mass density (328.15 K, x2 = 0.6) | other results
1 | CCCCCCCCn1cc[n+](C)c1.[Cl-] + CCCCCCCCn1cc[n+](C)c1.F[B-](F)(F)F |  |  |  |  |  |  |  |  |  |  |  |  |  |  |  |  |  |  |  |  | mass density (303.15 K, x1 = 1): 1007.2 kg/m3; mass density (308.15 K, x1 = 1): 1004.4 kg/m3; mass density (313.15 K, x1 = 1): 1001.5 kg/m3; mass density (323.15 K, x1 = 1): 995.8 kg/m3; mass density (333.15 K, x1 = 1): 990.2 kg/m3
2 | CCCCCC[n+]1ccn(C)c1.F[P-](F)(F)(F)(F)F + CCCCCC[n+]1ccn(C)c1.[Cl-] | 1150.4 kg/m3 | 1096 kg/m3 | 1242.9 kg/m3 | 1196.9 kg/m3 | 1147.1 kg/m3 | 1092.9 kg/m3 | 1281.5 kg/m3 | 1239.2 kg/m3 | 1193.4 kg/m3 | 1143.8 kg/m3 | 1277.6 kg/m3 | 1235.4 kg/m3 | 1140.5 kg/m3 | 1273.7 kg/m3 | 1231.6 kg/m3 | 1186.3 kg/m3 | 1083.7 kg/m3 | 1269.9 kg/m3 | 1182.8 kg/m3 | 1133.9 kg/m3 | mass density (303.15 K, x2 = 0): 1289.5 kg/m3; mass density (318.15 K, x2 = 0.8): 1086.7 kg/m3; mass density (328.15 K, x2 = 0.8): 1080.7 kg/m3; mass density (333.15 K, x2 = 0): 1266 kg/m3; mass density (333.15 K, x2 = 0.2): 1224.3 kg/m3; mass density (333.15 K, x2 = 0.4): 1179.4 kg/m3; mass density (333.15 K, x2 = 0.6): 1130.6 kg/m3; mass density (333.15 K, x2 = 0.8): 1077.6 kg/m3
3 | CCCCCCCCn1cc[n+](C)c1.F[B-](F)(F)F + CCCCCCCCn1cc[n+](C)c1.[Cl-] | 1046.9 kg/m3 | 1027.5 kg/m3 | 1080 kg/m3 | 1062.3 kg/m3 | 1043.8 kg/m3 | 1024.5 kg/m3 | 1093.5 kg/m3 | 1076.7 kg/m3 | 1059.1 kg/m3 | 1040.7 kg/m3 | 1090.2 kg/m3 | 1073.4 kg/m3 | 1037.7 kg/m3 | 1086.8 kg/m3 | 1070.3 kg/m3 | 1052.8 kg/m3 | 1015.7 kg/m3 | 1083.5 kg/m3 | 1049.6 kg/m3 | 1031.6 kg/m3 | mass density (303.15 K, x2 = 0.2): 1083.3 kg/m3; mass density (308.15 K, x2 = 0): 1096.8 kg/m3; mass density (313.15 K, x2 = 0.8): 1021.6 kg/m3; mass density (318.15 K, x2 = 0.4): 1055.9 kg/m3; mass density (323.15 K, x2 = 0.6): 1034.6 kg/m3; mass density (328.15 K, x2 = 0.2): 1067.1 kg/m3; mass density (328.15 K, x2 = 0.8): 1012.7 kg/m3; mass density (333.15 K, x2 = 0.2): 1063.9 kg/m3; mass density (333.15 K, x2 = 0.4): 1046.6 kg/m3; mass density (333.15 K, x2 = 0.6): 1028.5 kg/m3; mass density (333.15 K, x2 = 0.8): 1009.8 kg/m3
